# Experimental data as given in PubChem BioAssay (Tox21).
# Values joined by “and” are separate entries in the source; they are usually repeats but may differ in a detail not shown here. Equal values may be shown once. Inconclusive results, whose numbers are uncertain, are shown with a selection of clear calls. Where the call is inconclusive, the potency comes from a doubtful curve fit. Active and inactive are the calls of the source. Unless noted, calls come from the whole dose curve; as a rule, active = well fitted cell-killing curve with a large enough effect in the repeat runs; inconclusive = weak or mixed curves, or effect the other way; inactive = no such curve, though single readings can be large or run the other way.
# Assay: qHTS assay to identify small molecule agonists of the vitamin D receptor (VDR) signaling pathway - cell viability counter screen (AID 743224); note: nearly all actives have a fitted effect of over 50% in size
# Details: VDR-bla HEK293T viability, CellTiter-Glo luminescence, 16 h; series mostly up to 62.6 µM; activity change, negative = cytotoxicity: at the top concentration
# How it was run: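 VDR-bla cells were preincubated 4 h at 37C/5% CO2, then exposed to compounds for 16 h. After the 2 h room-temperature bla FRET read, CellTiter-Glo was added to the same wells and luminescence read after 30 min.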
# % is set by controls: 0 for no effect and ±100 for the full control effect; potency is the fitted concentration of half-maximal effect; tags give direction and shape of the fitted curve or compound fluorescence and quenching.
row,Structure (SMILES),Potency
1,CCCN(CCC)c1c([N+](=O)[O-])cc(C(F)(F)F)cc1[N+](=O)[O-],"inconclusive: 34.7 µM [cytotoxic, partial curve, poor fit]"
2,CCN(CC)C(=S)S,"inconclusive: 55.4 µM [cytotoxic, single point] and active: 4.87 µM and active: 6.92 µM"
3,CCCCCCCCCCn1cc[n+](C)c1,"inconclusive: 1.55 µM [cytotoxic, full curve] and inconclusive: 616 nM [cytotoxic, full curve]"
4,O=[N+]([O-])c1ccc(O)c([N+](=O)[O-])c1,inactive
5,CCCCCCCCCc1ccc(O)cc1,"inconclusive: 22.1 µM [cytotoxic, full curve]"
6,O=C(O)c1cc(Oc2ccc(C(F)(F)F)cc2Cl)ccc1[N+](=O)[O-],"inconclusive: 7.5 µM [cytotoxic, partial curve, poor fit]"
7,c1cc(OCC2CO2)ccc1Cc1ccc(OCC2CO2)cc1 (centres undefined),"inconclusive: 61.9 µM [cytotoxic, single point]"
8,O=C(CCl)CCl,"inconclusive: 54.9 µM [cytotoxic, partial curve, poor fit]"
9,CC(C)[C@H](C(=O)O[C@H](C#N)c1cccc(Oc2ccccc2)c1)c1ccc(Cl)cc1,"inconclusive: 38.9 µM [cytotoxic, partial curve]"
10,CCN(CC)CCc1c[nH]c2ccccc12,"inconclusive: 114 µM [cytotoxic, partial curve, poor fit]"

# Assay: qHTS assay to identify small molecule antagonists of the vitamin D receptor (VDR) signaling pathway - cell viability counter screen (AID 743225); note: nearly all actives have a fitted effect of over 50% in size
# Details: VDR-bla HEK293T viability, CellTiter-Glo luminescence, 16 h; viability change, negative = cytotoxic: at 61 µM (top of the series)
# How it was run: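 Cytotoxicity toward the VDR-bla HEK 293T line was scored by ATP-based CellTiter-Glo luminescence, read in the wells already used for the beta-lactamase readout after 16 h compound treatment under 3 nM 1-alpha,25-dihydroxyvitamin D3 stimulation.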
row,Structure (SMILES),Potency
1,O=P(OCC(Br)CBr)(OCC(Br)CBr)OCC(Br)CBr (centres undefined),"inconclusive: 24.9 µM [cytotoxic, partial curve, poor fit] and inconclusive: 2.33 µM [cytotoxic, full curve, poor fit]"
2,Nc1ccc(Cl)cc1N,"inconclusive: 0.0035 µM [rising, full curve]"
3,C[C@@H]1O[C@@H](O[C@H]2C[C@@H](O)[C@]3(CO)[C@H]4[C@H](O)C[C@]5(C)[C@@H](C6=CC(=O)OC6)CC[C@]5(O)[C@@H]4CC[C@]3(O)C2)[C@H](O)[C@H](O)[C@H]1O,active: 16.5 nM and active: 107 nM
4,COP(=O)(OC)OC=C(Cl)Cl,inactive
5,O=[N+]([O-])c1ccc(O)c([N+](=O)[O-])c1,"inconclusive: 34.8 µM [cytotoxic, partial curve, poor fit] and inconclusive: 38.9 µM [cytotoxic, partial curve, poor fit]"
6,CC1(C)C(C=C(Cl)Cl)C1C(=O)OC(C#N)c1ccc(F)c(Oc2ccccc2)c1 (centres undefined),"inconclusive: 8.71 µM [cytotoxic, single point]"
7,CC1(C)[C@H](C(=O)O[C@H](C#N)c2cccc(Oc3ccccc3)c2)[C@@H]1C=C(Br)Br,"inconclusive: 0.49 µM [cytotoxic, full curve, poor fit]"
8,CC1(C)C(C(=O)OC(C#N)c2cccc(Oc3ccccc3)c2)C1(C)C (centres undefined),inactive
9,N#Cc1c(Cl)c(Cl)c(Cl)c(C#N)c1Cl,active: 6.79 µM and active: 8.71 µM
10,c1ccc2c(c1)cc1ccc3cccc4ccc2c1c34,"inconclusive: 56 µM [cytotoxic, partial curve, poor fit]"
11,O=C1C=CC(=O)C=C1,"inconclusive: 0.436 µM [cytotoxic, full curve, poor fit]"
12,c1cc(OCC2CO2)ccc1Cc1ccc(OCC2CO2)cc1 (centres undefined),"inconclusive: 55.2 µM [cytotoxic, single point]"
13,O=[N+]([O-])c1c(Cl)c(Cl)c(Cl)c(Cl)c1Cl,"inconclusive: 3.08 µM [cytotoxic, full curve, poor fit]"

# Assay: qHTS assay to identify small molecule agonists of the endoplasmic reticulum stress response signaling pathway (AID 1159516; active = well fitted activation curve with a large enough effect in the signal ratio in the repeat runs, not every such curve was filed as active; inconclusive = weak or mixed curves, or effect the other way; the % refers to the signal ratio)
# Details: ESRE-bla HeLa, ER stress beta-lactamase reporter, 5 h; activation: at 61 µM (top of the series) unless noted
# How it was run: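 CellSensor ESRE-bla HeLa cells, carrying a beta-lactamase reporter driven by the ER stress response element, were plated overnight and exposed to compounds for 5 hr at 37 C. Reporter activity was read as FRET substrate fluorescence after 2 hr at room temperature.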
Structure (SMILES),Potency,activation
Cc1ccc(OP(=O)(Oc2ccc(C)cc2)Oc2ccc(C)cc2)cc1,"inconclusive: 0.549 µM [rising, partial curve, poor fit]",
CN1C[C@H](C(=O)N[C@]2(C)O[C@@]3(O)[C@@H]4CCCN4C(=O)[C@H](Cc4ccccc4)N3C2=O)C=C2c3cccc4[nH]cc(c34)C[C@H]21,"inconclusive: 24.7 µM [cytotoxic, partial curve] and inconclusive: 9.09 µM [cytotoxic, partial curve]",
O=P(OCC(Br)CBr)(OCC(Br)CBr)OCC(Br)CBr (centres undefined),inconclusive: 62.5 µM [single point] and inconclusive: 52.2 µM,
Nc1ccc(Cl)cc1N,inconclusive: 43.6 µM [cytotoxic],
C[C@@H]1O[C@@H](O[C@H]2C[C@@H](O)[C@]3(CO)[C@H]4[C@H](O)C[C@]5(C)[C@@H](C6=CC(=O)OC6)CC[C@]5(O)[C@@H]4CC[C@]3(O)C2)[C@H](O)[C@H](O)[C@H]1O,"inconclusive: 41.4 nM [rising, full curve] and inconclusive: 190 nM [rising, full curve]",
O=[N+]([O-])c1ccc(Cl)c(Cl)c1Cl,,inactive: -0.559%
COC(=O)C(c1ccccc1)C1CCCCN1 (centres undefined),,inactive: 0.728%
O=[N+]([O-])c1ccc(O)c([N+](=O)[O-])c1,inactive,
CCCCCCCCCc1ccc(O)cc1,"inconclusive: 21.9 µM [activator, partial curve, poor fit]",
COP(=O)(OC)C(O)C(Cl)(Cl)Cl (centres undefined),"inconclusive: 3.5 µM [falling, full curve]",inconclusive: 9.63%
CC(C)(c1cc(Cl)c(O)c(Cl)c1)c1cc(Cl)c(O)c(Cl)c1,"inconclusive: 61.7 µM [falling, single point]",
COCC(C)N(C(=O)CCl)c1c(C)csc1C (centres undefined),,inactive: -3.59%
CC1(C)C(C(=O)OC(C#N)c2cccc(Oc3ccccc3)c2)C1(C)C (centres undefined),"inconclusive: 7.82 µM [falling, single point]",
N#Cc1c(Cl)c(Cl)c(Cl)c(C#N)c1Cl,"inconclusive: 13.5 µM [falling, full curve] and inconclusive: 12.3 µM [falling, full curve]",
CC(C)C(Nc1ccc(C(F)(F)F)cc1Cl)C(=O)OC(C#N)c1cccc(Oc2ccccc2)c1 (centres undefined),inconclusive: 44 µM [partial curve],
Brc1ccc(Oc2ccc(Br)cc2Br)c(Br)c1,,inconclusive: 10.5%
c1ccc2c(c1)cc1ccc3cccc4ccc2c1c34,"inconclusive: 56 µM [fluorescent, partial curve]",
O=C1C=CC(=O)C=C1,"inconclusive: 55.2 µM [falling, single point]",inconclusive: 8.55%
CC(C)[C@H](C(=O)O[C@H](C#N)c1cccc(Oc2ccccc2)c1)c1ccc(Cl)cc1,inconclusive: 54.9 µM,
